# Test results from PubChem BioAssay AID504466 (National Center for Advancing Translational Sciences (NCATS), 2011).
# About 4,200 (1.3%) of roughly 330,000 compounds were called active. The shares of active, inactive and inconclusive entries below differ from those in the screen. Calls follow the shape of the dose curve; as a rule, active = well fitted activation curve with a large enough effect; inconclusive = small, poorly fitted or top-dose-only effect; inactive = no such curve, though single readings can be large or run the other way. Potencies of inconclusive entries are doubtful fits and often do not repeat.
# Experiment: qHTS screen for small molecules that induce genotoxicity in human embryonic kidney (HEK293T) cells expressing luciferase-tagged ELG1; also: nearly all actives have a fitted effect of over 60% in size
# Conditions: HEK293T ELG1-luciferase reporter, luminescence, 16 h; series mostly up to 46 µM
# Method in brief: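 HEK293T cells expressing luciferase-tagged ELG1 were exposed to compound or DMSO vehicle for 16 hr at 37 °C and 5% CO2. Luciferase activity was then measured with ONE-Glo after 30 min at room temperature.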
# Potency is read from the fitted curve at half-maximal effect; tags tell the direction and shape of the fitted curve.
row,SMILES,Potency
1,Cc1nnc(SCC(=O)c2ccc(Cl)cc2)s1,inactive
2,O=C(Nc1nc2c(s1)CCCC2)C1CCCN1C(=O)c1cccs1 (stereo not drawn),inactive
3,O=C(Nc1ccccc1)N1CCc2ccccc21,active: 9.2 µM
4,CCC(=O)Nc1cccc(-c2cnc3ccccc3n2)c1,"inconclusive: 10 µM [activator, partial curve, poor fit]"
5,CC(=O)Nc1nc(-c2ccccc2)c(-c2ccccc2)o1,inactive
6,Cc1ccc(C(=O)Nc2nc3ccc(S(C)(=O)=O)cc3s2)s1,active: 16.4 µM
7,CCC(C)NC(=O)c1csc2c1CCCCC2 (stereo not drawn),inactive
8,N#Cc1cc2c(nc1SCC(=O)N1CCCCC1)CCCC2,"inconclusive: 25.9 µM [activator, partial curve, poor fit]"
9,N/C(=N\O)c1ccc(NC(=O)c2cccs2)cc1,"inconclusive: 14.6 µM [activator, partial curve]"
10,COc1ccccc1CNS(=O)(=O)c1csc(C(N)=O)c1,inactive
11,Cc1cc2nc(-c3cccnc3SCC(=O)NC(C)C)[nH]c2cc1C,active: 23.1 µM
12,O=C(NCCCN1CCCC1=O)Nc1ccc(Br)cc1Cl,inactive
13,Cc1ccc(/C=N/NC(=O)c2ccc3c(c2)OCCO3)s1,"inconclusive: 2.59 µM [activator, partial curve]"
14,Cc1cc(C(=O)OCC(=O)N2CCc3ccccc32)ccc1[N+](=O)[O-],inactive
15,CCN1CCN(c2ncnc3c2cnn3-c2ccccc2)CC1,"inconclusive: 16.4 µM [activator, partial curve]"
16,CNC(=O)c1nnsc1S(=O)c1ccc(Cl)cc1 (stereo not drawn),inactive
17,COCCCNC(=O)CSc1c2c(nc3ccc(Cl)cc13)CCCC2,"inconclusive: 29.1 µM [activator, single point]"
18,C/C(=N\Nc1ccc(F)cc1F)c1ccc(N2CCOCC2)cc1,"inconclusive: 16.4 µM [activator, single point]"
19,O=C(c1ccc(-c2ccc([N+](=O)[O-])cc2Cl)o1)N1CCOCC1,"inconclusive: 16.4 µM [activator, single point]"
20,Clc1ccc(N/N=C/c2ccncc2)cc1Cl,"inconclusive: 23.1 µM [activator, partial curve, poor fit]"
21,CCOC(=O)C1CCN(c2c(Nc3ccc4c(c3)OCCO4)c(=O)c2=O)CC1,"inconclusive: 20.6 µM [activator, partial curve]"
22,Cn1c(=O)c(C(=O)NCC2CCCO2)c(O)c2ccccc21 (stereo not drawn),"inconclusive: 18.3 µM [activator, partial curve]"
23,COc1ccc(NC(=O)c2sc3nc(C)cc(C)c3c2N)cc1,"inconclusive: 11.2 µM [activator, partial curve]"
24,Cc1ccc2c(c1)N=C(c1ccc(Cl)cc1)CO2,"inconclusive: 3.26 µM [activator, partial curve, poor fit]"

row,SMILES,Potency
1,COc1ccc(C(=O)COC(=O)c2cccc(-n3cnnn3)c2)c(OC)c1,"inconclusive: 10.3 µM [activator, partial curve, poor fit]"
2,O=Nc1c(-c2c(O)[nH]c3cc(Br)ccc23)[nH]c2ccccc12,"inconclusive: 2.59 µM [activator, partial curve]"
3,Cc1onc(-c2ccccc2)c1C(=O)N/N=C/C(Br)=C/c1ccccc1,"inconclusive: 29.1 µM [activator, partial curve, poor fit]"
4,Cc1ccc(C)c(CN2CCSCC2)c1,inactive
5,CC(C)c1ccc(O)c(NC(=O)c2cncc(Br)c2)c1,"inconclusive: 16.4 µM [activator, partial curve, poor fit]"
6,CC(=O)c1cnc(Nc2ccc(C)cc2)s1,"inconclusive: 18.3 µM [activator, single point]"
7,COC(=O)c1ccc(-c2nc3ccccc3o2)cc1,"inconclusive: 3.26 µM [activator, full curve, poor fit]"
8,COc1cccc(CNc2ccc3c(c2)nc(C)n3C)c1OC,"inconclusive: 23.1 µM [activator, partial curve, poor fit]"
9,COc1ccc(C(=O)NNC(=S)Nc2ccccc2)cc1,"inconclusive: 3.26 µM [activator, single point]"
10,Clc1ccc(CSc2nc3ccncc3[nH]2)cc1,active: 2.91 µM
11,Cn1cc(CN2CCCC(C(=O)Nc3ccc(-c4cccc(F)c4)cc3)C2)cn1 (stereo not drawn),inactive
12,CCNc1nc(Cl)nc(NCc2ccccc2)n1,"inconclusive: 29.1 µM [activator, partial curve, poor fit]"
13,Cn1c(SCC(=O)c2ccccc2)ncc(C(=O)Nc2ccccc2)c1=O,"inconclusive: 29.1 µM [activator, partial curve, poor fit]"
14,O=C(NC(=S)Nc1ccc2c(c1)OCO2)c1ccc(Cl)cc1,"inconclusive: 16.4 µM [activator, partial curve]"
15,O=C(NCCCN1CCCC1=O)C(=O)Nc1cccc(F)c1,"inconclusive: 14.6 µM [activator, single point]"
16,COC(=O)C1CCN(C(=O)c2cc(-c3ccc(Cl)s3)nc3ccccc23)CC1,inactive
17,Cc1ccc[n+](CC(=O)c2ccc(Br)cc2)c1,inactive
18,COc1ccc(C(=O)NC2=Nc3ccccc3N=C(C)C2c2ccccc2)cc1 (stereo not drawn),"inconclusive: 23.1 µM [activator, partial curve, poor fit]"
19,O=C(O)c1cccc(NC(=S)NC(=O)c2ccc3ccccc3c2)c1,"inconclusive: 0.651 µM [activator, full curve]"
20,CC(C)CSc1nnc2c3ccccc3n(C)c2n1,"inconclusive: 14.6 µM [activator, partial curve]"
21,Cc1occc1C(=O)Nc1sc2c(c1C(N)=O)CCCCC2,active: 10.3 µM
22,CC(C)Oc1ccc(C(=O)Nc2ncn[nH]2)cc1,"inconclusive: 20.6 µM [activator, partial curve, poor fit]"
23,Cc1cc(C)cc(NC(=O)c2c(C)nc3ccccn23)c1,inactive
24,COc1ccc(C2=NN(S(C)(=O)=O)C(c3cccs3)C2)cc1 (stereo not drawn),"inconclusive: 7.3 µM [activator, partial curve, poor fit]"
